Assay results taken from the supplement of paper PMC10498489.
Hit rate of the full screen: of about 2,300 compounds, about 330 (14%) showed activity.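 Rule for the calls: active = median modified Z-score above 1.96; inactive = 1.96 or below.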 The list shows a part of the results, in another mix than the full data.

Each compound was assayed on HepG2 Srxn1-GFP reporter cells (+30 nM CDDO-Me) (assay: Srxn1-GFP intensity median modified Z-score relative to plate median; higher = stronger NRF2 / oxidative stress reporter activation, active = hit call of the paper). Conditions: 10 µM; exposure time: 24h.
Method in brief: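 Values give the median, over replicates, of the modified Z-score of GFP intensity on each plate. HepG2 Srxn1-GFP BAC reporter cells were co-treated for 24 h with an NRF2 activator at 30 nM and compound at 10 μM (≤0.1% DMSO) in three replicate plates, then analysed per cell for cytoplasmic GFP on confocal images with at least 100 cells. Scaling used 1.4826 × median absolute deviation.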

Compound	Srxn1-GFP intensity median modified Z-score
C[C@@H]1O[C@@H](O[C@H]2CC[C@]3(C=O)C4CC[C@]5(C)C(c6coc(O)c6)CC[C@]5(O)C4CC[C@]3(O)C2)[C@H](O)[C@H](O)[C@H]1O (stereo partly specified) [euspeclibcmpd1374]	active: 7.48
CN1CC(C(=O)N[C@]2(C)O[C@@]3(O)C4CCCN4C(=O)C(Cc4ccccc4)N3C2=O)=CC2c3cccc4[nH]cc(c34)CC21 (stereo partly specified) [euspeclibcmpd823]	active: 113
CC(NC(C)(C)C)C(=O)c1cccc(Cl)c1 (stereo unspecified) [euspeclibcmpd657]	inactive: -0.376
C=CCSSCC=C [euspeclibcmpd1617]	inactive: -0.329
O=C1C=CC(=O)c2ccccc21 [euspeclibcmpd1754]	active: 32.6
O=[N+]([O-])C(Br)(CO)CO [euspeclibcmpd2257]	active: 6.25
CNc1ccccc1C(=O)O [euspeclibcmpd1568]	inactive: -0.451
COC(C)CC(=O)Nc1ccc([N+](=O)[O-])c(C(F)(F)F)c1 (stereo unspecified)	inactive: 1.79
C[C@]12CCC(=O)CC1=CC=C1C2CC[C@@]2(C)C1CC[C@@]2(O)CCC(=O)O (stereo partly specified) [euspeclibcmpd2339]	inactive: -0.283
COP(=O)(OC)C(O)C(Cl)(Cl)Cl (stereo unspecified) [euspeclibcmpd866]	active: 3.07
CCSCCC(N)C(=O)O (stereo unspecified) [euspeclibcmpd1757]	inactive: -0.7
Cc1cccc(C)c1NC(=O)CN1CCCC1=O [euspeclibcmpd1084]	inactive: -0.241
CC(=O)c1c(O)cc(C)oc1=O [euspeclibcmpd1006]	active: 15.5
N#Cc1[nH]n(-c2c(Cl)cc(C(F)(F)F)cc2Cl)c(=N)c1[S+]([O-])C(F)(F)F (stereo unspecified) [euspeclibcmpd821]	inactive: -0.323
S=C=NCc1ccccc1 [euspeclibcmpd1105]	active: 100
CCN1C[C@@]2(COC)C3[C@@H](OC)[C@H]4[C@@H]1[C@]3(C(OC)C[C@H]2O)C1C[C@@]2(O)[C@H](OC(=O)c3ccccc3)C1[C@]4(OC(C)=O)[C@@H](O)[C@@H]2OC (stereo partly specified) [euspeclibcmpd686]	inactive: 0.0544
O=c1c2ccccc2[se]n1-c1ccccc1 [euspeclibcmpd2467]	inactive: 0.279
C[N+]1(C)C2CCC1CC(OC(=O)C(CO)c1ccccc1)C2 (stereo unspecified) [euspeclibcmpd790]	inactive: -0.464
NCC(O)c1ccc(O)cc1 (stereo unspecified) [euspeclibcmpd1039]	inactive: -0.0826
COc1cc2c3cc1Oc1c(OC)c(OC)cc4c1[C@@H](Cc1cccc(c1)Oc1ccc(c(O)c1)C[C@@H]3N(C)CC2)N(C)CC4 [euspeclibcmpd1812]	active: 2.31
O=c1ccc2cc(O[C@@H]3O[C@H](CO)[C@@H](O)[C@H](O)[C@H]3O)c(O)cc2o1 [euspeclibcmpd2096]	inactive: -0.413
N=c1[nH]c(=N)[nH]c(=NC2CC2)[nH]1 [euspeclibcmpd1229]	inactive: -0.282
COc1cc2c(cc1OC)C1C(=O)c3ccc4c(c3O[C@@H]1CO2)CC(C(C)C)O4 (stereo partly specified) [euspeclibcmpd1349]	active: 54.1
COc1cc2c(c(OC)c1OC)-c1ccc(OC)c(=O)cc1[C@@H](NC(C)=O)CC2 [euspeclibcmpd73]	active: 13.3

Compound	Srxn1-GFP intensity median modified Z-score
CO[C@H]1[C@H](O)[C@@H](O[C@H]2CC[C@]3(C=O)C4CC[C@]5(C)C(c6coc(O)c6)CC[C@]5(O)C4CC[C@@H]3C2)O[C@@H](C)[C@@H]1O (stereo partly specified) [euspeclibcmpd2165]	active: 3.39
CC[N+]1(C)CCCC(OC(=O)C(O)(c2ccccc2)c2ccccc2)C1 (stereo unspecified) [euspeclibcmpd1115]	inactive: 0.0901
NC1C[C@H]1c1ccccc1 (stereo partly specified) [euspeclibcmpd300]	inactive: 1.01
CC[C@H]1C2CC3[C@@H]4N(C)c5ccccc5[C@]45C[C@@H](C2C5O)N3[C@@H]1O (stereo partly specified) [euspeclibcmpd1044]	inactive: -0.296
N#CC(=Cc1cccc(O)c1)C(=O)O [euspeclibcmpd2014]	inactive: 0.195
C[N+]1(C)CCc2cc3c(cc2[C@H]1C1OC(=O)c2c1ccc1c2OCO1)OCO3 (stereo partly specified) [euspeclibcmpd1466]	active: 2.41
O=C(O)CC[N+](=O)[O-] [euspeclibcmpd2092]	inactive: -0.221
COc1cc2ccc(=O)oc2c2ccoc12 [euspeclibcmpd1485]	inactive: -0.312
C=CCc1ccc(OC)cc1 [euspeclibcmpd2023]	inactive: -0.433
O=[N+]([O-])O[C@H]1CO[C@H]2[C@@H]1OC[C@H]2O[N+](=O)[O-] [euspeclibcmpd166]	inactive: -0.506
O=C1C=C2C=CC3C[C@@]2(O1)[C@H]1CCCCN31 [euspeclibcmpd1211]	active: 9.38
O=C(CCCN1CCC2(CC1)C(=O)NCN2c1ccccc1)c1ccc(F)cc1 [euspeclibcmpd405]	active: 10.2
CC(O)(CS(=O)(=O)c1ccc(F)cc1)C(=O)Nc1ccc(C#N)c(C(F)(F)F)c1 (stereo unspecified) [euspeclibcmpd817]	inactive: -0.242
COc1cc2c(c(OC)c1OC)-c1ccc(=O)c(O)cc1C(NC(C)=O)CC2 (stereo unspecified) [euspeclibcmpd2248]	inactive: -0.142
CCC1(C2=NCCN2)Cc2ccccc2O1 (stereo unspecified) [euspeclibcmpd1254]	inactive: -0.176
O=C(O)c1nn(Cc2ccc(Cl)cc2Cl)c2ccccc12 [euspeclibcmpd999]	inactive: 0.941
COc1ccc2c(c1OC)C(=O)O[C@@H]2[C@H]1c2cc3c(cc2CCN1C)OCO3 [euspeclibcmpd2270]	inactive: 0.619
Cc1cc(C(C#N)c2ccc(Cl)cc2)c(Cl)cc1NC(=O)c1cc(I)cc(I)c1O (stereo unspecified) [euspeclibcmpd694]	active: 9.76
O=c1[nH]oc2c1CCNC2 [euspeclibcmpd1005]	inactive: -0.162
O=C1CCO1 [euspeclibcmpd876]	inactive: 0.468
O=C1C(Cl)=C(Cl)C(=O)C(Cl)=C1Cl [euspeclibcmpd1739]	active: 25.8
CS(=N)(=O)CCC(N)C(=O)O (stereo unspecified) [euspeclibcmpd1752]	inactive: -0.455
COc1ccc(OC)c(C(O)C(C)N)c1 (stereo unspecified) [euspeclibcmpd191]	inactive: -0.0407
CCCC(C)(COC(N)=O)COC(=O)NC(C)C (stereo unspecified) [euspeclibcmpd46]	inactive: 0.166

Compound	Srxn1-GFP intensity median modified Z-score
O=C(O)C1[O][Sb]2[O]C(=O)C([O]2)C(C(=O)O)[O][Sb]2[O]C(=O)C1[O]2 (stereo unspecified) [euspeclibcmpd2437]	active: 3.34
COc1cc(OC)c(OC)cc1C=O [euspeclibcmpd1681]	inactive: -0.205
C[N+]1(C)CCCC(OC(=O)C(O)(c2ccccc2)c2ccccc2)C1 (stereo unspecified) [euspeclibcmpd182]	inactive: 0.227
C#CC(C)(O)CC (stereo unspecified) [euspeclibcmpd1276]	active: 1.99
COc1cc([C@@H]2c3cc4c(cc3[C@H](OC(C)=O)[C@H]3COC(=O)C23)OCO4)cc(OC)c1OC (stereo partly specified) [euspeclibcmpd2106]	active: 13.1
COc1ccccc1N1CCNCC1 [euspeclibcmpd1760]	inactive: -0.162
C[C@]12CCC3c4ccc(OC(=O)N(CCCl)CCCl)cc4CCC3C1CC[C@@H]2O (stereo partly specified) [euspeclibcmpd984]	active: 2.13
O=C(NC(O)C(Cl)(Cl)Cl)NC(O)C(Cl)(Cl)Cl (stereo unspecified) [euspeclibcmpd2304]	inactive: 0.189
CN1C(=O)CCS(=O)(=O)C1c1ccc(Cl)cc1 (stereo unspecified) [euspeclibcmpd942]	inactive: 0.154
O=P1(N(CCCl)CCCl)NCCCO1 (stereo unspecified) [euspeclibcmpd2335]	inactive: -0.33
c1ccc2c(c1)sc1ccccc12 [euspeclibcmpd88]	active: 3.54
CC(C)CC1C(=O)N2CCC[C@H]2[C@@]2(O)O[C@](NC(=O)C3=CC4c5cccc6[nH]c(Br)c(c56)CC4N(C)C3)(C(C)C)C(=O)N12 (stereo partly specified) [euspeclibcmpd39]	active: 23.2
COc1cc2c(cc1OC)-c1c(oc3c4c(ccc3c1=O)OC(C(C)C)C4)CO2 (stereo unspecified) [euspeclibcmpd1802]	inactive: -0.169
COc1ccc(C(CN(C)C)C2(O)CCCCC2)cc1 (stereo unspecified) [euspeclibcmpd2154]	inactive: -0.2
NCC(=O)c1ccccc1 [euspeclibcmpd1673]	active: 3.04
C[C@]12CCC3C(CC[C@H]4CC(=O)CC[C@]34C)C1CCC2=O (stereo partly specified) [euspeclibcmpd1450]	inactive: -0.253
O=c1[nH]c2ccccc2n1C1CCN(CCCC(c2ccc(F)cc2)c2ccc(F)cc2)CC1 [euspeclibcmpd392]	inactive: -2.27
CCC(C)[C@H]1O[C@]2(C=C[C@@H]1C)C[C@@H]1C[C@@H](C/C=C(\C)[C@@H](OC3C[C@H](OC)C(O[C@H]4C[C@H](OC)[C@@H](O)[C@H](C)O4)[C@H](C)O3)[C@@H](C)/C=C/C=C3\CO[C@@H]4[C@H](O)C(C)=CC(C(=O)O1)[C@]34O)O2 (stereo partly specified) [euspeclibcmpd1285]	active: 16.3
O=[N+]([O-])O[C@@H]1CO[C@H]2[C@@H]1OC[C@@H]2O [euspeclibcmpd605]	active: 3.27
CC(=O)Nc1cc([As](=O)(O)O)ccc1O [euspeclibcmpd2446]	inactive: 0.0429
Cc1cc2c(C(C)C)c(O)c(O)c(C=O)c2c(O)c1-c1c(C)cc2c(C(C)C)c(O)c(O)c(C=O)c2c1O [euspeclibcmpd1471]	active: 3.88
Cc1cc2c(C(C)C)c(O)c(O)c(C=O)c2c(O)c1-c1c(C)cc2c(C(C)C)c(O)c(O)c(C=O)c2c1O [euspeclibcmpd2093]	active: 3.73
NCCc1ccccc1 [euspeclibcmpd2078]	inactive: 0.0184
